Measured values as given in article PMC12820563.
This is one part of the list. The list includes weakly bound sequences.

What follows are sequences tested against T1, MBP-FoxP3dN (UniProt Q99JB6) (assay: PD-seq (MBP pull-down with sequencing)). Details: 20 mM Tris-HCl pH 7.5, 100 mM NaCl, 1.5 mM MgCl2, 0.4 uM protein, 0.1 uM dsDNA library, 30 min, room temperature, amylose pull-down; high values mean tight binding; double strand, one strand shown.
T1 sequence: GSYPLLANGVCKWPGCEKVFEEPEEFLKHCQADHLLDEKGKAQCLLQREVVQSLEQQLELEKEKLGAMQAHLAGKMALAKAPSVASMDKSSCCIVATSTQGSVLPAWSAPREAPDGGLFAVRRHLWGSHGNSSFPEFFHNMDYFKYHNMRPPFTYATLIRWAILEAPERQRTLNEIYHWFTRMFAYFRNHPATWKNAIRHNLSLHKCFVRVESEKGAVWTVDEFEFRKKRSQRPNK

Row | Sequence | binding signal (RPM ratio (pull-down/input))
1 | GATGATTGTTCTCCCAGCTGATGAATTTTCCAAGTCGAGTAAACAAATTTTCCTAATCTTTCTGTTCAAGCGCCATCTAC | 0.151
2 | GATGATTGTTCTCCCAGCTGATGAATTTCACTGCTCGAGTAAACAAATTTTCCTAATCTTTCTGTTCAAGCGCCATCTAC | 0.327
3 | GATGATTGTTCTCCCAGCTGATGAATTGCTGTTGTCGAGTAAACAAATTTTCCTAATCTTTCTGTTCAAGCGCCATCTAC | 2.74
4 | GATGATTGTTCTCCCAGCTGATGAATTACCAAGATCGAGTAAACAAATTTTCCTAATCTTTCTGTTCAAGCGCCATCTAC | 0.227
5 | GATGATTGTTCTCCCAGCTGATGAATTCTACACCTCGAGTAAACAAATTTTCCTAATCTTTCTGTTCAAGCGCCATCTAC | 0.327
6 | GATGATTGTTCTCCCAGCTGATGAATTGTGGTATTCGAGTAAACAAATTTTCCTAATCTTTCTGTTCAAGCGCCATCTAC | 2.19
7 | GATGATTGTTCTCCCAGCTGATGAATTGACAGGCTCGAGTAAACAAATTTTCCTAATCTTTCTGTTCAAGCGCCATCTAC | 0.356
8 | GATGATTGTTCTCCCAGCTGATGAATTACTTGCCTCGAGTAAACAAATTTTCCTAATCTTTCTGTTCAAGCGCCATCTAC | 0.506
9 | GATGATTGTTCTCCCAGCTGATGAATTGTGCTATTCGAGTAAACAAATTTTCCTAATCTTTCTGTTCAAGCGCCATCTAC | 4.38
10 | GATGATTGTTCTCCCAGCTGATGAATTCGAGTTCTCGAGTAAACAAATTTTCCTAATCTTTCTGTTCAAGCGCCATCTAC | 0.671
11 | GATGATTGTTCTCCCAGCTGATGAATTTCCTGTTTCGAGTAAACAAATTTTCCTAATCTTTCTGTTCAAGCGCCATCTAC | 0.338
12 | GATGATTGTTCTCCCAGCTGATGAATTACATGCTTCGAGTAAACAAATTTTCCTAATCTTTCTGTTCAAGCGCCATCTAC | 0.846
13 | GATGATTGTTCTCCCAGCTGATGAATTGAAGCGTTCGAGTAAACAAATTTTCCTAATCTTTCTGTTCAAGCGCCATCTAC | 1.08
14 | GATGATTGTTCTCCCAGCTGATGAATTGGGAGAATCGAGTAAACAAATTTTCCTAATCTTTCTGTTCAAGCGCCATCTAC | 0.237
15 | GATGATTGTTCTCCCAGCTGATGAATTACCCCGTTCGAGTAAACAAATTTTCCTAATCTTTCTGTTCAAGCGCCATCTAC | 0.275
16 | GATGATTGTTCTCCCAGCTGATGAATTATTAGAGTCGAGTAAACAAATTTTCCTAATCTTTCTGTTCAAGCGCCATCTAC | 0.319
17 | GATGATTGTTCTCCCAGCTGATGAATTAATCTGATCGAGTAAACAAATTTTCCTAATCTTTCTGTTCAAGCGCCATCTAC | 0.222
18 | GATGATTGTTCTCCCAGCTGATGAATTTGGAACTTCGAGTAAACAAATTTTCCTAATCTTTCTGTTCAAGCGCCATCTAC | 0.32
19 | GATGATTGTTCTCCCAGCTGATGAATTCCGGGGTTCGAGTAAACAAATTTTCCTAATCTTTCTGTTCAAGCGCCATCTAC | 0.329
20 | GATGATTGTTCTCCCAGCTGATGAATTGTGGACTTCGAGTAAACAAATTTTCCTAATCTTTCTGTTCAAGCGCCATCTAC | 0.814
21 | GATGATTGTTCTCCCAGCTGATGAATTCGTTGATTCGAGTAAACAAATTTTCCTAATCTTTCTGTTCAAGCGCCATCTAC | 2.53

Row | Sequence | binding signal (RPM ratio (pull-down/input))
22 | GATGATTGTTCTCCCAGCTGATGAATTTAAGCAGTCGAGTAAACAAATTTTCCTAATCTTTCTGTTCAAGCGCCATCTAC | 0.462
23 | GATGATTGTTCTCCCAGCTGATGAATTTGGATGGTCGAGTAAACAAATTTTCCTAATCTTTCTGTTCAAGCGCCATCTAC | 0.869
24 | GATGATTGTTCTCCCAGCTGATGAATTATCTTTCTCGAGTAAACAAATTTTCCTAATCTTTCTGTTCAAGCGCCATCTAC | 0.346
25 | GATGATTGTTCTCCCAGCTGATGAATTGACACCCTCGAGTAAACAAATTTTCCTAATCTTTCTGTTCAAGCGCCATCTAC | 0.503
26 | GATGATTGTTCTCCCAGCTGATGAATTTGAGCGATCGAGTAAACAAATTTTCCTAATCTTTCTGTTCAAGCGCCATCTAC | 0.462
27 | GATGATTGTTCTCCCAGCTGATGAATTAGTCGATTCGAGTAAACAAATTTTCCTAATCTTTCTGTTCAAGCGCCATCTAC | 0.485
28 | GATGATTGTTCTCCCAGCTGATGAATTATGGACTTCGAGTAAACAAATTTTCCTAATCTTTCTGTTCAAGCGCCATCTAC | 0.516
29 | GATGATTGTTCTCCCAGCTGATGAATTTGGGTACTCGAGTAAACAAATTTTCCTAATCTTTCTGTTCAAGCGCCATCTAC | 1.24
30 | GATGATTGTTCTCCCAGCTGATGAATTAATAGGGTCGAGTAAACAAATTTTCCTAATCTTTCTGTTCAAGCGCCATCTAC | 0.423
31 | GATGATTGTTCTCCCAGCTGATGAATTACCGGGTTCGAGTAAACAAATTTTCCTAATCTTTCTGTTCAAGCGCCATCTAC | 0.319
32 | GATGATTGTTCTCCCAGCTGATGAATTCGTGAGTTCGAGTAAACAAATTTTCCTAATCTTTCTGTTCAAGCGCCATCTAC | 0.935
33 | GATGATTGTTCTCCCAGCTGATGAATTAAAAGTCTCGAGTAAACAAATTTTCCTAATCTTTCTGTTCAAGCGCCATCTAC | 0.266
34 | GATGATTGTTCTCCCAGCTGATGAATTTATTGGTTCGAGTAAACAAATTTTCCTAATCTTTCTGTTCAAGCGCCATCTAC | 5.89
35 | GATGATTGTTCTCCCAGCTGATGAATTCGTTTAGTCGAGTAAACAAATTTTCCTAATCTTTCTGTTCAAGCGCCATCTAC | 2.93
36 | GATGATTGTTCTCCCAGCTGATGAATTTCACCGTTCGAGTAAACAAATTTTCCTAATCTTTCTGTTCAAGCGCCATCTAC | 0.334
37 | GATGATTGTTCTCCCAGCTGATGAATTATGCAACTCGAGTAAACAAATTTTCCTAATCTTTCTGTTCAAGCGCCATCTAC | 6.6
38 | GATGATTGTTCTCCCAGCTGATGAATTCCATGTGTCGAGTAAACAAATTTTCCTAATCTTTCTGTTCAAGCGCCATCTAC | 0.842
39 | GATGATTGTTCTCCCAGCTGATGAATTTTTGTACTCGAGTAAACAAATTTTCCTAATCTTTCTGTTCAAGCGCCATCTAC | 0.489
40 | GATGATTGTTCTCCCAGCTGATGAATTTATCTAATCGAGTAAACAAATTTTCCTAATCTTTCTGTTCAAGCGCCATCTAC | 0.706
41 | GATGATTGTTCTCCCAGCTGATGAATTCGAAGTTTCGAGTAAACAAATTTTCCTAATCTTTCTGTTCAAGCGCCATCTAC | 0.338
42 | GATGATTGTTCTCCCAGCTGATGAATTCTATAGATCGAGTAAACAAATTTTCCTAATCTTTCTGTTCAAGCGCCATCTAC | 0.347

Row | Sequence | binding signal (RPM ratio (pull-down/input))
43 | GATGATTGTTCTCCCAGCTGATGAATTAGCTCAATCGAGTAAACAAATTTTCCTAATCTTTCTGTTCAAGCGCCATCTAC | 0.251
44 | GATGATTGTTCTCCCAGCTGATGAATTTCAGTCCTCGAGTAAACAAATTTTCCTAATCTTTCTGTTCAAGCGCCATCTAC | 0.396
45 | GATGATTGTTCTCCCAGCTGATGAATTGACTCGCTCGAGTAAACAAATTTTCCTAATCTTTCTGTTCAAGCGCCATCTAC | 0.331
46 | GATGATTGTTCTCCCAGCTGATGAATTTAATTCATCGAGTAAACAAATTTTCCTAATCTTTCTGTTCAAGCGCCATCTAC | 0.605
47 | GATGATTGTTCTCCCAGCTGATGAATTCTAGTCGTCGAGTAAACAAATTTTCCTAATCTTTCTGTTCAAGCGCCATCTAC | 0.429
48 | GATGATTGTTCTCCCAGCTGATGAATTGATTACTTCGAGTAAACAAATTTTCCTAATCTTTCTGTTCAAGCGCCATCTAC | 1.48
49 | GATGATTGTTCTCCCAGCTGATGAATTCGTATGCTCGAGTAAACAAATTTTCCTAATCTTTCTGTTCAAGCGCCATCTAC | 2.01
50 | GATGATTGTTCTCCCAGCTGATGAATTCTCGAGTTCGAGTAAACAAATTTTCCTAATCTTTCTGTTCAAGCGCCATCTAC | 0.325
51 | GATGATTGTTCTCCCAGCTGATGAATTCGAAACGTCGAGTAAACAAATTTTCCTAATCTTTCTGTTCAAGCGCCATCTAC | 0.281
52 | GATGATTGTTCTCCCAGCTGATGAATTACCAGAGTCGAGTAAACAAATTTTCCTAATCTTTCTGTTCAAGCGCCATCTAC | 0.23
53 | GATGATTGTTCTCCCAGCTGATGAATTCGTTGGATCGAGTAAACAAATTTTCCTAATCTTTCTGTTCAAGCGCCATCTAC | 0.659
54 | GATGATTGTTCTCCCAGCTGATGAATTGAGCGGCTCGAGTAAACAAATTTTCCTAATCTTTCTGTTCAAGCGCCATCTAC | 0.486
55 | GATGATTGTTCTCCCAGCTGATGAATTTTCCATGTCGAGTAAACAAATTTTCCTAATCTTTCTGTTCAAGCGCCATCTAC | 0.215
56 | GATGATTGTTCTCCCAGCTGATGAATTCTATGCTTCGAGTAAACAAATTTTCCTAATCTTTCTGTTCAAGCGCCATCTAC | 0.793
57 | GATGATTGTTCTCCCAGCTGATGAATTCCCTTAATCGAGTAAACAAATTTTCCTAATCTTTCTGTTCAAGCGCCATCTAC | 0.224
58 | GATGATTGTTCTCCCAGCTGATGAATTTTGGGCTTCGAGTAAACAAATTTTCCTAATCTTTCTGTTCAAGCGCCATCTAC | 0.396
59 | GATGATTGTTCTCCCAGCTGATGAATTGTGCACTTCGAGTAAACAAATTTTCCTAATCTTTCTGTTCAAGCGCCATCTAC | 2.32
60 | GATGATTGTTCTCCCAGCTGATGAATTTAACAGATCGAGTAAACAAATTTTCCTAATCTTTCTGTTCAAGCGCCATCTAC | 0.216
61 | GATGATTGTTCTCCCAGCTGATGAATTGTCCTTATCGAGTAAACAAATTTTCCTAATCTTTCTGTTCAAGCGCCATCTAC | 0.451
62 | GATGATTGTTCTCCCAGCTGATGAATTTGGGTGTTCGAGTAAACAAATTTTCCTAATCTTTCTGTTCAAGCGCCATCTAC | 1.11
63 | GATGATTGTTCTCCCAGCTGATGAATTCGCTACATCGAGTAAACAAATTTTCCTAATCTTTCTGTTCAAGCGCCATCTAC | 0.511
